According to the supplement of paper PMC4967469:
The IC50 comes from the fitted curve, where viability falls to half of the control; where the fit passes the top or lowest dose, that dose stands as a limit. AUC sums up the same curve from the lowest dose to the 256-fold higher top dose: 1 means no effect, lower means more sensitive. For some assays here: An inferred top dose comes from the curve model; the source does not state it.

What was measured:
Assay in all cases: Viability of human cancer cell lines after 72 h of drug (GDSC screen)
[1] = compound: C=CC(=O)Nc1cc(NC(=O)c2ccc(C)c(NC(=O)c3ccno3)c2)cc(C(F)(F)F)c1 [QL-XI-92]; conditions: top dose 10.24 µM; top dose inferred
Protocol: (§1)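 Human cancer cell lines in 384-well plates, medium with 10% serum, drug for 72 h over a 256-fold dose range (nine 2-fold or five 4-fold steps up to the top dose). Adherent lines were fixed and stained with the nucleic acid dye Syto60, suspension lines read with resazurin; signal relative to control wells, capped at 0 and 100%. One two-parameter sigmoid per drug and line, fitted in a mixed model over all curves with the slope shared within a line.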

[2] = compound: CCC1=C[C@@H]2CN(C1)Cc1c([nH]c3ccccc13)[C@@](C(=O)OC)(c1cc3c(cc1OC)N(C)[C@H]1[C@@](O)(C(=O)OC)[C@H](OC(C)=O)[C@]4(CC)C=CCN5CC[C@]31[C@@H]54)C2 [Vinorelbine]; conditions: top dose 0.064 µM; top dose inferred
Protocol: as §1

[3] = compound: CNCc1ccc(-c2[nH]c3cc(F)cc4c3c2CCNC4=O)cc1 [AG-014699]; conditions: top dose 5 µM; top dose inferred
Protocol: as §1

[4] = compound: COc1cc2nccc(Oc3ccc(NC(=O)C4(C(=O)Nc5ccc(F)cc5)CC4)cc3)c2cc1OC [XL-184]; conditions: top dose 5.12 µM; top dose inferred
Protocol: as §1

[5] = compound: COc1cc2ncnc(Nc3cc(Br)c(O)c(Br)c3)c2cc1OC [WHI-P97]; conditions: top dose 10.24 µM; top dose inferred
Protocol: as §1

[6] = compound: COc1cc2ncnc(Nc3ccc(F)c(Cl)c3)c2cc1OCCCN1CCOCC1 [Gefitinib]; conditions: top dose 0.5 µM
Protocol: as §1

[7] = compound: N=C(N)NC(=N)NCCc1ccccc1 [Phenformin]; conditions: top dose 4000 µM; top dose inferred
Protocol: as §1

[8] = compound: N[C@@H](CSC(c1ccccc1)(c1ccccc1)c1ccccc1)C(=O)O [S-Trityl-L-cysteine]; conditions: top dose 5.12 µM; top dose inferred
Protocol: as §1

[9] = compound: O=c1cc(CN2CCOCC2)occ1OCCCCCSc1ccnc2cc(C(F)(F)F)ccc12 [EHT 1864]; conditions: top dose 10 µM; top dose inferred
Protocol: as §1

[10] = compound: O=c1cc(N2CCOCC2)oc2c(-c3cccc4c3sc3ccccc34)cccc12 [NU-7441]; conditions: top dose 2 µM; top dose inferred
Protocol: as §1

D-502MG (glioma, adherent)
AUC [1]: 0.873 | IC50 [1]: > 10.2 µM | AUC [2]: 0.852 | IC50 [2]: > 0.064 µM | AUC [3]: 0.94 | IC50 [3]: > 5 µM | AUC [4]: 0.861 | IC50 [4]: > 5.12 µM | AUC [5]: 0.929 | IC50 [5]: > 10.2 µM | AUC [6]: 0.966 | IC50 [6]: > 0.5 µM | AUC [7]: 0.848 | IC50 [7]: > 4000 µM | AUC [8]: 0.967 | IC50 [8]: > 5.12 µM | AUC [9]: 0.973 | IC50 [9]: > 10 µM | AUC [10]: 0.95 | IC50 [10]: > 2 µM

DND-41 (T-cell leukaemia, suspension)
AUC [1]: 0.849 | IC50 [1]: 6.37 µM | AUC [2]: 0.651 | IC50 [2]: 0.00992 µM | AUC [3]: 0.984 | IC50 [3]: > 5 µM | AUC [4]: 0.939 | IC50 [4]: > 5.12 µM | AUC [5]: 0.953 | IC50 [5]: > 10.2 µM | AUC [6]: 0.987 | IC50 [6]: > 0.5 µM | AUC [7]: 0.687 | IC50 [7]: 777 µM | AUC [8]: 0.815 | IC50 [8]: 2.4 µM | AUC [9]: 0.987 | IC50 [9]: > 10 µM | AUC [10]: 0.948 | IC50 [10]: > 2 µM

DU-4475 (breast, suspension)
AUC [1]: 0.878 | IC50 [1]: 7.15 µM | AUC [2]: 0.873 | IC50 [2]: 0.0427 µM | AUC [3]: 0.965 | IC50 [3]: > 5 µM | AUC [4]: 0.976 | IC50 [4]: > 5.12 µM | AUC [5]: 0.967 | IC50 [5]: > 10.2 µM | AUC [6]: 0.967 | IC50 [6]: > 0.5 µM | AUC [7]: 0.307 | IC50 [7]: 81.2 µM | AUC [8]: 0.697 | IC50 [8]: 1.01 µM | AUC [9]: 0.942 | IC50 [9]: > 10 µM | AUC [10]: 0.982 | IC50 [10]: > 2 µM

Daudi (Burkitt lymphoma, suspension)
AUC [1]: 0.787 | IC50 [1]: 3.83 µM | AUC [2]: 0.865 | IC50 [2]: 0.0448 µM | AUC [3]: 0.99 | IC50 [3]: > 5 µM | AUC [4]: 0.881 | IC50 [4]: 4.16 µM | AUC [5]: 0.982 | IC50 [5]: > 10.2 µM | AUC [6]: 0.975 | IC50 [6]: > 0.5 µM | AUC [7]: 0.496 | IC50 [7]: 245 µM | AUC [8]: 0.683 | IC50 [8]: 0.963 µM | AUC [9]: 0.935 | IC50 [9]: > 10 µM | AUC [10]: 0.984 | IC50 [10]: > 2 µM

EC-GI-10 (oesophagus, adherent)
AUC [1]: 0.989 | IC50 [1]: > 10.2 µM | AUC [2]: 0.907 | IC50 [2]: > 0.064 µM | AUC [3]: 0.981 | IC50 [3]: > 5 µM | AUC [4]: 0.938 | IC50 [4]: > 5.12 µM | AUC [5]: 0.983 | IC50 [5]: > 10.2 µM | AUC [6]: 0.9 | IC50 [6]: > 0.5 µM | AUC [7]: 0.987 | IC50 [7]: > 4000 µM | AUC [8]: 0.915 | IC50 [8]: > 5.12 µM | AUC [9]: 0.918 | IC50 [9]: > 10 µM | AUC [10]: 0.983 | IC50 [10]: > 2 µM

ES1 (Ewing sarcoma, adherent)
AUC [1]: 0.856 | IC50 [1]: 8.07 µM | AUC [2]: 0.529 | IC50 [2]: 0.00479 µM | AUC [3]: 0.766 | IC50 [3]: 1.81 µM | AUC [4]: 0.869 | IC50 [4]: 4.61 µM | AUC [5]: 0.937 | IC50 [5]: > 10.2 µM | AUC [6]: 0.986 | IC50 [6]: > 0.5 µM | AUC [7]: 0.46 | IC50 [7]: 195 µM | AUC [8]: 0.696 | IC50 [8]: 1.13 µM | AUC [9]: 0.845 | IC50 [9]: 7.08 µM | AUC [10]: 0.986 | IC50 [10]: > 2 µM

ES5 (Ewing sarcoma, adherent)
AUC [1]: 0.872 | IC50 [1]: > 10.2 µM | AUC [2]: 0.771 | IC50 [2]: 0.0283 µM | AUC [3]: 0.862 | IC50 [3]: > 5 µM | AUC [4]: 0.803 | IC50 [4]: 3 µM | AUC [5]: 0.93 | IC50 [5]: > 10.2 µM | AUC [6]: 0.982 | IC50 [6]: > 0.5 µM | AUC [7]: 0.464 | IC50 [7]: 196 µM | AUC [8]: 0.979 | IC50 [8]: > 5.12 µM | AUC [9]: 0.951 | IC50 [9]: > 10 µM | AUC [10]: 0.855 | IC50 [10]: 1.99 µM

ES6 (Ewing sarcoma, adherent)
AUC [1]: 0.964 | IC50 [1]: > 10.2 µM | AUC [2]: 0.769 | IC50 [2]: 0.0299 µM | AUC [3]: 0.982 | IC50 [3]: > 5 µM | AUC [4]: 0.885 | IC50 [4]: > 5.12 µM | AUC [5]: 0.95 | IC50 [5]: > 10.2 µM | AUC [6]: 0.982 | IC50 [6]: > 0.5 µM | AUC [7]: 0.666 | IC50 [7]: 816 µM | AUC [8]: 0.901 | IC50 [8]: > 5.12 µM | AUC [9]: 0.963 | IC50 [9]: > 10 µM | AUC [10]: 0.968 | IC50 [10]: > 2 µM

ES7 (Ewing sarcoma, adherent)
AUC [1]: 0.866 | IC50 [1]: 9.57 µM | AUC [2]: 0.554 | IC50 [2]: 0.00563 µM | AUC [3]: 0.858 | IC50 [3]: 4.29 µM | AUC [4]: 0.638 | IC50 [4]: 0.779 µM | AUC [5]: 0.923 | IC50 [5]: > 10.2 µM | AUC [6]: 0.983 | IC50 [6]: > 0.5 µM | AUC [7]: 0.4 | IC50 [7]: 132 µM | AUC [8]: 0.968 | IC50 [8]: > 5.12 µM | AUC [9]: 0.874 | IC50 [9]: > 10 µM | AUC [10]: 0.873 | IC50 [10]: > 2 µM

EVSA-T (breast, adherent)
AUC [1]: 0.986 | IC50 [1]: > 10.2 µM | AUC [2]: 0.924 | IC50 [2]: > 0.064 µM | AUC [3]: 0.991 | IC50 [3]: > 5 µM | AUC [4]: 0.963 | IC50 [4]: > 5.12 µM | AUC [5]: 0.982 | IC50 [5]: > 10.2 µM | AUC [6]: 0.991 | IC50 [6]: > 0.5 µM | AUC [7]: 0.722 | IC50 [7]: 951 µM | AUC [8]: 0.782 | IC50 [8]: 1.83 µM | AUC [9]: 0.922 | IC50 [9]: > 10 µM | AUC [10]: 0.93 | IC50 [10]: > 2 µM

EW-1 (Ewing sarcoma, semi-adherent)
AUC [1]: 0.944 | IC50 [1]: > 10.2 µM | AUC [2]: 0.468 | IC50 [2]: 0.0033 µM | AUC [3]: 0.968 | IC50 [3]: > 5 µM | AUC [4]: 0.875 | IC50 [4]: 4.32 µM | AUC [5]: 0.924 | IC50 [5]: > 10.2 µM | AUC [6]: 0.989 | IC50 [6]: > 0.5 µM | AUC [7]: 0.722 | IC50 [7]: 1000 µM | AUC [8]: 0.697 | IC50 [8]: 1.08 µM | AUC [9]: 0.948 | IC50 [9]: > 10 µM | AUC [10]: 0.974 | IC50 [10]: > 2 µM

EW-3 (Ewing sarcoma, adherent)
AUC [1]: 0.922 | IC50 [1]: > 10.2 µM | AUC [2]: 0.915 | IC50 [2]: > 0.064 µM | AUC [3]: 0.931 | IC50 [3]: > 5 µM | AUC [4]: 0.928 | IC50 [4]: > 5.12 µM | AUC [5]: 0.922 | IC50 [5]: > 10.2 µM | AUC [6]: 0.978 | IC50 [6]: > 0.5 µM | AUC [7]: 0.666 | IC50 [7]: 779 µM | AUC [8]: 0.897 | IC50 [8]: > 5.12 µM | AUC [9]: 0.949 | IC50 [9]: > 10 µM | AUC [10]: 0.982 | IC50 [10]: > 2 µM

EW-13 (Ewing sarcoma, suspension)
AUC [1]: 0.745 | IC50 [1]: 3.52 µM | AUC [2]: 0.604 | IC50 [2]: 0.00796 µM | AUC [3]: 0.979 | IC50 [3]: > 5 µM | AUC [4]: 0.882 | IC50 [4]: > 5.12 µM | AUC [5]: 0.916 | IC50 [5]: > 10.2 µM | AUC [6]: 0.975 | IC50 [6]: > 0.5 µM | AUC [7]: 0.769 | IC50 [7]: 1680 µM | AUC [8]: 0.976 | IC50 [8]: > 5.12 µM | AUC [9]: 0.986 | IC50 [9]: > 10 µM | AUC [10]: 0.981 | IC50 [10]: > 2 µM
